According to the supplement of paper PMC8728848:
The list shows a part of the results.

How the values were obtained:
Experiment in all cases: glycan array binding signal (z-score within array); higher = stronger binding
Conditions in all cases: glycan notation: IUPAC condensed, linker removed
Gal(a1-3)Gal = target: Gal(a1-3)Gal
Method in brief: (§1)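 The binding signal is a Z-score computed within each array and averaged over linkers. Arrays of the same protein sequence at different concentrations or buffers were also averaged together. Data originate from 3228 arrays in the Consortium for Functional Glycomics database, kept only where the protein sequence was available.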

Gal(a1-3)Gal(b1-3)GlcNAc = target: Gal(a1-3)Gal(b1-3)GlcNAc
Method in brief: as §1

[1] = target: Gal(a1-3)Gal(b1-3)GlcNAc(b1-2)Man
Method in brief: as §1

[2] = target: Gal(a1-3)Gal(b1-3)GlcNAc(b1-2)Man(a1-3)[Gal(a1-3)Gal(b1-3)GlcNAc(b1-2)Man(a1-6)]Man(b1-4)GlcNAc(b1-4)GlcNAc
Method in brief: as §1

[3] = target: Gal(a1-3)Gal(b1-3)GlcNAc(b1-3)GalNAc
Method in brief: as §1

[4] = target: Gal(a1-3)Gal(b1-3)GlcNAc(b1-6)GalNAc
Method in brief: as §1

[5] = target: Gal(a1-3)Gal(b1-3)[Fuc(a1-4)]GlcNAc(b1-2)Man(a1-3)[Gal(a1-3)Gal(b1-3)[Fuc(a1-4)]GlcNAc(b1-2)Man(a1-6)]Man(b1-4)GlcNAc(b1-4)GlcNAc
Method in brief: as §1

Gal(a1-3)Gal(b1-4)Glc = target: Gal(a1-3)Gal(b1-4)Glc
Method in brief: as §1

Gal(a1-3)Gal(b1-4)GlcNAc = target: Gal(a1-3)Gal(b1-4)GlcNAc
Method in brief: as §1

[6] = target: Gal(a1-3)Gal(b1-4)GlcNAc(b1-2)Man
Method in brief: as §1

[7] = target: Gal(a1-3)Gal(b1-4)GlcNAc(b1-2)Man(a1-3)[Gal(a1-3)Gal(b1-4)GlcNAc(b1-2)Man(a1-6)]Man(b1-4)GlcNAc(b1-4)GlcNAc
Method in brief: as §1

[8] = target: Gal(a1-3)Gal(b1-4)GlcNAc(b1-3)GalNAc
Method in brief: as §1

[9] = target: Gal(a1-3)Gal(b1-4)GlcNAc(b1-6)GalNAc
Method in brief: as §1

[10] = target: Gal(a1-3)Gal(b1-4)[Fuc(a1-3)]GlcNAc
Method in brief: as §1

[11] = target: Gal(a1-3)Gal(b1-4)[Fuc(a1-3)]GlcNAc(b1-2)Man(a1-3)[Gal(a1-3)Gal(b1-4)[Fuc(a1-3)]GlcNAc(b1-2)Man(a1-6)]Man(b1-4)GlcNAc(b1-4)GlcNAc
Method in brief: as §1

Gal(a1-3)GalNAc = target: Gal(a1-3)GalNAc
Method in brief: as §1

[12] = target: Gal(a1-3)[Gal(a1-4)]Gal(b1-4)GlcNAc
Method in brief: as §1

[13] = target: Gal(a1-4)Gal(b1-3)GlcNAc(b1-2)Man(a1-3)[Gal(a1-4)Gal(b1-3)GlcNAc(b1-2)Man(a1-6)]Man(b1-4)GlcNAc(b1-4)GlcNAc
Method in brief: as §1

Gal(a1-4)Gal(b1-4)Glc = target: Gal(a1-4)Gal(b1-4)Glc
Method in brief: as §1

Gal(a1-4)Gal(b1-4)GlcNAc = target: Gal(a1-4)Gal(b1-4)GlcNAc
Method in brief: as §1

[14] = target: Gal(a1-4)Gal(b1-4)GlcNAc(b1-2)Man(a1-3)[Gal(a1-4)Gal(b1-4)GlcNAc(b1-2)Man(a1-6)]Man(b1-4)GlcNAc(b1-4)GlcNAc
Method in brief: as §1

[15] = target: Gal(a1-4)Gal(b1-4)GlcNAc(b1-3)Gal(b1-4)Glc
Method in brief: as §1

Gal(a1-4)GlcNAc = target: Gal(a1-4)GlcNAc
Method in brief: as §1

Gal(a1-6)Glc = target: Gal(a1-6)Glc
Method in brief: as §1

Gal(b1-2)Gal = target: Gal(b1-2)Gal
Method in brief: as §1

Gal(b1-3)Gal = target: Gal(b1-3)Gal
Method in brief: as §1

Gal(b1-3)Gal(b1-4)GlcNAc = target: Gal(b1-3)Gal(b1-4)GlcNAc
Method in brief: as §1

Gal(b1-3)GalNAc = target: Gal(b1-3)GalNAc
Method in brief: as §1

[16] = target: Gal(b1-3)GalNAc(a1-3)[Fuc(a1-2)]Gal(b1-4)Glc
Method in brief: as §1

[17] = target: Gal(b1-3)GalNAc(a1-3)[Fuc(a1-2)]Gal(b1-4)GlcNAc
Method in brief: as §1

Gal(b1-3)GalNAc(b1-3)Gal = target: Gal(b1-3)GalNAc(b1-3)Gal
Method in brief: as §1

[18] = target: Gal(b1-3)GalNAc(b1-3)Gal(a1-4)Gal(b1-4)Glc
Method in brief: as §1

[19] = target: Gal(b1-3)GalNAc(b1-4)Gal(b1-4)Glc
Method in brief: as §1

[20] = target: Gal(b1-3)GalNAc(b1-4)[Neu5Ac(a2-3)]Gal(b1-4)Glc
Method in brief: as §1

Gal(b1-3)GlcNAc = target: Gal(b1-3)GlcNAc
Method in brief: as §1

[21] = target: Gal(b1-3)GlcNAc(a1-3)Gal(b1-4)GlcNAc
Method in brief: as §1

[22] = target: Gal(b1-3)GlcNAc(a1-6)Gal(b1-4)GlcNAc
Method in brief: as §1

Gal(b1-3)GlcNAc(b1-2)Man = target: Gal(b1-3)GlcNAc(b1-2)Man
Method in brief: as §1

B1: Als3-41 (Candida albicans) (protein)
chain: KTITGVFNSFNSLTWSNAATYNYKGPGTPTWNAVLGWSLDGTSASPGDTFTLNMPCVFKFTTSQTSVDLTAHGVKYATCQFQAGEEFMTFSTLTCTVSNTLTPSIKALGTVTLPLAFNVGGTGSSVDLEDSKCFTAGTNTVTFNDGGKKISINVDFERSNVDPKGYLTDSRVIPSLNKVSTLFVAPQCANGYTSGTMGFANTYGDVQIDCSNIHVGITKGLNDWNYPVSSESFSYTKTCSSNGIFITYKNVPAGYRPFVDAYISATDVNSYTLSYANEYTCAGGYWQRAPFTLRWTGYRNSDAGSNGIVIVATTRTVTDSTTAVTTLPFDPNRDKTKTIEILKPIPTTTITTSYVGVTTSYLTKTAPIGETATVIVD
glycan array binding signal (z-score) (Gal(a1-3)Gal): -0.269 | glycan array binding signal (z-score) (Gal(a1-3)Gal(b1-3)GlcNAc): -0.274 | glycan array binding signal (z-score) [1]: -0.272 | glycan array binding signal (z-score) [2]: 0.022 | glycan array binding signal (z-score) [3]: 0.231 | glycan array binding signal (z-score) [4]: -0.293 | glycan array binding signal (z-score) [5]: -0.227 | glycan array binding signal (z-score) (Gal(a1-3)Gal(b1-4)Glc): -0.321 | glycan array binding signal (z-score) (Gal(a1-3)Gal(b1-4)GlcNAc): -0.345 | glycan array binding signal (z-score) [6]: -0.289 | glycan array binding signal (z-score) [7]: 0.23 | glycan array binding signal (z-score) [8]: -0.242 | glycan array binding signal (z-score) [9]: -0.001 | glycan array binding signal (z-score) [10]: -0.125 | glycan array binding signal (z-score) [11]: 0.391 | glycan array binding signal (z-score) (Gal(a1-3)GalNAc): -0.296 | glycan array binding signal (z-score) [12]: -0.252 | glycan array binding signal (z-score) [13]: 0.106 | glycan array binding signal (z-score) (Gal(a1-4)Gal(b1-4)Glc): -0.114 | glycan array binding signal (z-score) (Gal(a1-4)Gal(b1-4)GlcNAc): 0.331 | glycan array binding signal (z-score) [14]: 0.002 | glycan array binding signal (z-score) [15]: -0.213 | glycan array binding signal (z-score) (Gal(a1-4)GlcNAc): -0.149 | glycan array binding signal (z-score) (Gal(a1-6)Glc): -0.255 | glycan array binding signal (z-score) (Gal(b1-2)Gal): -0.182 | glycan array binding signal (z-score) (Gal(b1-3)Gal): -0.067 | glycan array binding signal (z-score) (Gal(b1-3)Gal(b1-4)GlcNAc): -0.059 | glycan array binding signal (z-score) (Gal(b1-3)GalNAc): -0.311 | glycan array binding signal (z-score) [16]: 0.097 | glycan array binding signal (z-score) [17]: -0.256 | glycan array binding signal (z-score) (Gal(b1-3)GalNAc(b1-3)Gal): -0.141 | glycan array binding signal (z-score) [18]: 0.05 | glycan array binding signal (z-score) [19]: -0.195 | glycan array binding signal (z-score) [20]: 0.174 | glycan array binding signal (z-score) (Gal(b1-3)GlcNAc): -0.234 | glycan array binding signal (z-score) [21]: -0.315 | glycan array binding signal (z-score) [22]: -0.263 | glycan array binding signal (z-score) (Gal(b1-3)GlcNAc(b1-2)Man): 0.151
